Among all 290,000 compounds or so, about 2,100 (0.72%) were called active. Inconclusive means that the source gave no clear call. Such entries were picked first, then a sample of the others. Calls follow the shape of the dose curve; as a rule, active = well fitted inhibition curve with a large enough effect; inconclusive = small, poorly fitted or top-dose-only effect, or effect the other way; inactive = flat fitted curve, though single readings scatter. A potency beside an inconclusive call is a rough fit, not a confirmed value.
Target: Fructose-bisphosphate aldolase (Giardia intestinalis (strain ATCC 50803 / WB clone C6)) (UniProt A8B2U2)
Test: qHTS Assay for Inhibitors of Fructose-1,6-bisphosphate Aldolase from Giardia Lamblia; also: nearly all actives have a fitted effect of over 55% in size
Conditions: purified Giardia FBPA; activity, negative = inhibition: at 59.6 µM (top of the series) unless noted
Method in brief: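 Giardia FBPA (40 nM reagent) was preincubated 10 min at RT with compound (up to 57.5 uM final), then substrate plus GAPDH/TPI/NAD/arsenate coupling system with diaphorase/resazurin was added; resorufin fluorescence (525/598 nm) was read after 20 min.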
% is scaled to controls: 0 for no effect and ±100 for the full control effect; potency is read from the fitted curve at half-maximal effect; tags tell the direction and shape of the fitted curve.

UniProt A8B2U2, sequence (A8B2U2 whole entry, looked up): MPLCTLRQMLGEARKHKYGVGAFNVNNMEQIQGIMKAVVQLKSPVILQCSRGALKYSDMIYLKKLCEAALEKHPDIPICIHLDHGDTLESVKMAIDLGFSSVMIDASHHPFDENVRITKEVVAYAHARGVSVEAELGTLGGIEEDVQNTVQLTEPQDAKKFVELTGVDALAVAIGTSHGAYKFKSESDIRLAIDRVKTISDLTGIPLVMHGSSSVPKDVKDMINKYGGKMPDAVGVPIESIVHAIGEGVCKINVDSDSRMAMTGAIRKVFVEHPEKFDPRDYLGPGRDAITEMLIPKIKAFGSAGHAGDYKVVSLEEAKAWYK

**Q.** Which Potency does the source give for `Cc1[nH]n(-c2ccccc2)c(=O)c1N=Nc1ccc(C(N)=O)cc1` here?
**A.** inconclusive: 15.8 µM [inhibitor, partial curve]

**Q.** With `CCn1cc(/C=C2/SC(=S)NC2=O)c(C)n1` as the compound, how does the Potency read?
**A.** inconclusive: 9.98 µM [inhibitor, partial curve]

**Q.** `Cc1ccccc1CSCC(=O)NC(=O)NCc1ccco1` was tested. Which “activity, negative = inhibition” value did it give?
**A.** inactive: 20.5%

**Q.** Which Potency does the source give for `COc1cc(OC)c([N+](=O)[O-])cc1/C=N/NC(=O)c1ccncc1` here?
**A.** inconclusive: 8.89 µM [inhibitor, partial curve]

**Q.** `CCOC(=O)c1c(C)[nH]c(C=Nc2ccccc2)c1O` was tested. Which Potency did it give?
**A.** inconclusive: 6.29 µM [inhibitor, full curve]

**Q.** `Cc1nc(SCc2ccc(O)c([N+](=O)[O-])c2)c([N+](=O)[O-])[nH]1` was tested. Which Potency did it give?
**A.** inconclusive: 17.7 µM [inhibitor, partial curve]

**Q.** For `COc1ccc(C(C#N)N2N=C(c3ccccc3)CC2c2ccccc2)cc1OC` (stereo not drawn), which Potency is on record?
**A.** inconclusive: 31.5 µM [inhibitor, single point]

**Q.** `CCc1ccc(Cc2cnc(NC(=O)C3=NCCN3)s2)cc1` was tested. Which Potency did it give?
**A.** active: 14.1 µM

**Q.** How did the Potency turn out when `O=[N+]([O-])c1ccc(Cl)c(CN2CCN(c3ncccn3)CC2)c1` was run?
**A.** inconclusive: 28.2 µM [inhibitor, partial curve]

**Q.** For `N#CC1=C(N)Oc2c(sc3ccccc23)C1c1ccco1` (stereo not drawn), which Potency is on record?
**A.** inconclusive: 11.2 µM [inhibitor, partial curve]

**Q.** For `CCOC(=O)c1cnc2ccc(C)cn2c1=O`, which Potency is on record?
**A.** inconclusive: 19.9 µM [inhibitor, single point]

**Q.** How did the Potency turn out when `CC1CCCC/C1=N\NC(=S)Nc1ccccc1` (stereo not drawn) was run?
**A.** inconclusive: 19.9 µM [inhibitor, single point]

**Q.** Which Potency does the source give for `Cc1nnc(NC(=O)CSc2ccccc2N)s1` here?
**A.** inconclusive: 10 µM [inhibitor, partial curve]

**Q.** `Cc1ccc(C(=O)C[n+]2ccccc2)cc1` was tested. Which “activity, negative = inhibition” value did it give?
**A.** inactive: -0.658%

**Q.** Which Potency does the source give for `O=c1ccc2[n+]([O-])c3ccc(O)cc3oc-2c1` here?
**A.** inconclusive: 4.46 µM [inhibitor, partial curve]

**Q.** How did the Potency turn out when `CC1(CC(=O)N/N=C/c2cc([N+](=O)[O-])c(O)cc2O)OCCO1` was run?
**A.** inconclusive: 1.58 µM [inhibitor, single point]

**Q.** With `Cc1sc(NC(=O)CN2CCOCC2)c(C(=O)c2ccccc2)c1C` as the compound, how does the “activity, negative = inhibition” value read?
**A.** inactive: 0.295%

**Q.** With `COc1ccc(-n2c(N)c(C(=O)NCc3ccco3)c3nc4ccccc4nc32)cc1OC` as the compound, how does the Potency read?
**A.** inconclusive: 5 µM [inhibitor, full curve]

**Q.** How did the Potency turn out when `COc1cccc(/C=N/NC(=O)c2cc(-c3cccn3C)n[nH]2)c1O` was run?
**A.** inconclusive: 2.51 µM [inhibitor, full curve, poor fit]

**Q.** For `COc1ccccc1N1CCN(C(C)C(=O)Nc2ccc(S(=O)(=O)N3CCOCC3)cc2)CC1` (stereo not drawn), which “activity, negative = inhibition” value is on record?
**A.** inactive: 3.6%

**Q.** `COc1ccc(CN2CCN(S(=O)(=O)c3ccccc3)CC2)cc1Br` was tested. Which Potency did it give?
**A.** inconclusive: 15.8 µM [inhibitor, single point]

**Q.** Which Potency does the source give for `CN1C(=O)C(CC(=O)NCCc2ccccc2)N(NC(=O)c2cccc(F)c2)C1=S` (stereo not drawn) here?
**A.** inconclusive: 12.6 µM [inhibitor, partial curve]

**Q.** For `COc1ccc(NC(=O)N2CCN(c3ccc([N+](=O)[O-])cc3)CC2)cc1OC`, which Potency is on record?
**A.** inconclusive: 17.7 µM [inhibitor, partial curve]

**Q.** `COc1ccc2nc(-c3cccc(N)c3)[nH]c2c1` was tested. Which Potency did it give?
**A.** inconclusive: 17.7 µM [inhibitor, single point]

**Q.** Which Potency does the source give for `N=c1n(CCN2CCCCC2)c2ccccc2n1CC(=O)c1ccc(Cl)c(Cl)c1` here?
**A.** inconclusive: 17.7 µM [inhibitor, single point]

**Q.** How did the Potency turn out when `CNC(=O)C1C(=S)NC(N)=C(C#N)C1c1ccccc1` (stereo not drawn) was run?
**A.** inconclusive: 11.2 µM [inhibitor, partial curve]

**Q.** `CC1(C)Cc2c(sc(NC(=O)/C=C/C(=O)O)c2C#N)CO1` was tested. Which “activity, negative = inhibition” value did it give?
**A.** inactive: 1.3%

**Q.** Which Potency does the source give for `O=C(Cc1ccccc1)Nc1nnc(-c2ccco2)o1` here?
**A.** inconclusive: 17.7 µM [inhibitor, single point]

**Q.** How did the “activity, negative = inhibition” value turn out when `Cc1ccnc2nc(C(=O)Nc3nc4ccccc4s3)nn12` was run?
**A.** inactive: -23%

**Q.** For `O=C(COc1cccc(Cl)c1)Nc1ccc2c(c1)CCC2`, which “activity, negative = inhibition” value is on record?
**A.** inactive: -4.48%

**Q.** Which “activity, negative = inhibition” value does the source give for `COc1ccc(C(=O)N2CCC3(CCN(C)CC3)CC2)cc1` here?
**A.** inactive: 10.1%

**Q.** With `Cc1cc(C)c(S(=O)(=O)N/N=C/c2ccc3c(c2)OCO3)c(C)c1` as the compound, how does the “activity, negative = inhibition” value read?
**A.** inactive: -15.2%

**Q.** How did the Potency turn out when `COc1ccc(OC)c(/C=N/c2oc(-c3ccco3)c(-c3ccco3)c2C#N)c1` was run?
**A.** inconclusive: 5.61 µM [inhibitor, full curve]

**Q.** `Cc1ccc(N(C(=O)c2snc(C(N)=O)c2N)C(C(=O)NC2CCCC2)c2ccco2)cc1` (stereo not drawn) was tested. Which “activity, negative = inhibition” value did it give?
**A.** inactive: 0.386%

**Q.** How did the Potency turn out when `O=C(/C(=N/N=C/c1ccc(O)c(O)c1)c1ccccc1)c1ccccc1` was run?
**A.** inconclusive: 6.29 µM [inhibitor, partial curve]

**Q.** Which Potency does the source give for `CC(=O)Oc1cc2c(C(=O)NCCN3CCOCC3)c(C)oc2c2ccccc12` here?
**A.** inconclusive: 0.5 µM [inhibitor, full curve]

**Q.** Which Potency does the source give for `CN1C(=O)C(CC(=O)Nc2ccccc2F)N(NC(=O)c2ccc(Br)cc2)C1=S` (stereo not drawn) here?
**A.** inconclusive: 15.8 µM [inhibitor, partial curve]

**Q.** How did the Potency turn out when `CC(/C=N/NC(=O)c1nnn(-c2nonc2N)c1CN(C)C)=C\c1ccco1` was run?
**A.** inconclusive: 7.06 µM [inhibitor, partial curve]

**Q.** Which “activity, negative = inhibition” value does the source give for `Cc1ccc(C)c(NC(=O)c2sc(Cl)nc2C)c1` here?
**A.** inactive: 1.14%

**Q.** `CC(=O)Oc1ccc2cc(-c3ccccc3)c(=O)oc2c1` was tested. Which “activity, negative = inhibition” value did it give?
**A.** inactive: -0.849%

**Q.** For `O=C(/C=C/c1ccccc1)NC(=S)Nc1ncccn1`, which Potency is on record?
**A.** inconclusive: 15.8 µM [inhibitor, partial curve]

**Q.** Which “activity, negative = inhibition” value does the source give for `Cc1ccc(N2CCN(CC3CC=CCC3)CC2)cc1` (stereo not drawn) here?
**A.** inactive: -2.67%

**Q.** For `COc1cccc2cc(C(C)OC(=O)Nc3ccc(C)cc3)oc12` (stereo not drawn), which “activity, negative = inhibition” value is on record?
**A.** inactive: -6.63%

**Q.** How did the Potency turn out when `NC(=O)c1ccc(N=C2C(=O)Nc3ccc([N+](=O)[O-])cc32)cc1` was run?
**A.** inconclusive: 3.15 µM [inhibitor, full curve]

**Q.** `CCCCN(CC)Cc1ccc(CNC(=S)Nc2c(C)cc(C)cc2C)o1` was tested. Which Potency did it give?
**A.** active: 12.6 µM

**Q.** For `CC1(C)Oc2ccc3ccc(=O)oc3c2-c2cnoc21`, which Potency is on record?
**A.** inconclusive: 17.7 µM [inhibitor, partial curve]

**Q.** How did the “activity, negative = inhibition” value turn out when `Cc1ccccc1C(=O)Nc1nnc(S(=O)(=O)N(C)Cc2ccco2)s1` was run?
**A.** inactive: -23.9%

**Q.** `O=C(O)c1ccc2cccnc2c1O` was tested. Which Potency did it give?
**A.** active: 19.9 µM

**Q.** `CC(CCN1CCN(c2ccccn2)CC1)c1ccccc1` (stereo not drawn) was tested. Which Potency did it give?
**A.** inconclusive: 14.1 µM [inhibitor, partial curve]

**Q.** Which Potency does the source give for `Cc1ccc(S(=O)(=O)Nc2cc(S(=O)(=O)c3ccc(C)cc3)c(O)c3cccnc23)cc1` here?
**A.** inconclusive: 12.6 µM [inhibitor, partial curve]

**Q.** How did the Potency turn out when `CCSS(=O)(=O)c1cccc2cccnc12` was run?
**A.** active: 15.8 µM

**Q.** Which Potency does the source give for `COc1ccc(NCC(=O)N/N=C/c2c(C)nn(Cc3ccccc3)c2Cl)cc1` here?
**A.** inconclusive: 15.8 µM [inhibitor, single point]

**Q.** How did the Potency turn out when `Cc1cc(-n2c(C)cc(C(=O)CSc3ncnc4ccccc34)c2C)no1` was run?
**A.** inconclusive: 14.1 µM [inhibitor, partial curve]

**Q.** `COc1cc2c(cc1OC)CN(Cc1ccccc1)CC2` was tested. Which Potency did it give?
**A.** inconclusive: 31.6 µM [inhibitor, single point]

**Q.** `COc1cc(/C=C/c2c([N+](=O)[O-])c(=O)n(C)c(=O)n2C)cc(OC)c1OC` was tested. Which “activity, negative = inhibition” value did it give?
**A.** inactive: 2.31%

**Q.** `Cc1cc(C)c(S(=O)(=O)/N=C2/C=C(SCC(=O)O)C(=O)c3ccccc32)cc1C` was tested. Which Potency did it give?
**A.** active: 15.8 µM

**Q.** `CCCCn1c(SCC(=O)NC(C)CC)nc2ccc(N3CCOCC3)cc2c1=O` (stereo not drawn) was tested. Which Potency did it give?
**A.** inconclusive: 1.58 µM [inhibitor, full curve]

**Q.** Which “activity, negative = inhibition” value does the source give for `Cc1ccc(C)c(N2CCN(CCCNC(=O)Cn3cc4c(n3)CCCCC4)CC2)c1` here?
**A.** inactive: -7.12%

**Q.** Which Potency does the source give for `COc1cccc(CN(Cc2cccnc2)S(=O)(=O)c2ccc(-n3cnnn3)c(C)c2)c1` here?
**A.** inconclusive: 15.8 µM [inhibitor, single point]

**Q.** How did the Potency turn out when `O=S(=O)(Nc1nc2ccc(S(=O)(=O)N3CCCCC3)cc2s1)c1ccccc1` was run?
**A.** inconclusive: 17.7 µM [activator, single point]

**Q.** For `CCSc1nnc(-c2ccccc2N)c(=O)[nH]1`, which “activity, negative = inhibition” value is on record?
**A.** inactive: -1.66%

**Q.** With `NC(=O)CN(C/C=C/c1ccccc1)C/C=C/c1ccccc1` as the compound, how does the Potency read?
**A.** active: 28.2 µM

**Q.** `O=C(c1cccnc1)N1CCN(Cc2cccc(F)c2)CC1` was tested. Which Potency did it give?
**A.** inconclusive: 7.06 µM [inhibitor, partial curve]

**Q.** Which Potency does the source give for `CN(CCOc1ccccc1)CC(=O)Nc1ccc(S(=O)(=O)N2CCCC2)cc1` here?
**A.** active: 15.8 µM

**Q.** `O=C(NC(=S)N1CCCCC1)c1cccnc1` was tested. Which Potency did it give?
**A.** inconclusive: 15.8 µM [inhibitor, partial curve]

**Q.** With `O=C(CNCCc1ccccc1)N1CCc2ccccc2C1` as the compound, how does the Potency read?
**A.** inconclusive: 19.9 µM [inhibitor, partial curve]

**Q.** `CC1(C)Cc2c(sc(NC(=O)c3ccccc3)c2C(=O)O)CO1` was tested. Which Potency did it give?
**A.** inconclusive: 19.9 µM [inhibitor, partial curve]

**Q.** With `Cc1ccc(S(=O)(=O)N2CCN(C(C)CC(=O)O)CC2)cc1` (stereo not drawn) as the compound, how does the Potency read?
**A.** inconclusive: 19.9 µM [inhibitor, partial curve]

**Q.** With `OCCC1CN(C2CCN(c3ccccc3)CC2)CCN1Cc1ccc(F)c(F)c1` (stereo not drawn) as the compound, how does the “activity, negative = inhibition” value read?
**A.** inactive: 0.68%

**Q.** For `Cc1oc(/N=C/c2cccc3ccccc23)c(C#N)c1C`, which Potency is on record?
**A.** inconclusive: 15.8 µM [inhibitor, single point]

**Q.** For `C=CCn1c(SCC(=O)c2ccc(O)c(O)c2)nnc1-c1cccnc1`, which Potency is on record?
**A.** active: 15.8 µM

**Q.** `CC(=O)C(Sc1nn(C)c(=S)s1)C(=O)Nc1ccccc1` (stereo not drawn) was tested. Which Potency did it give?
**A.** inconclusive: 14.1 µM [inhibitor, partial curve]

**Q.** For `CC1=NN(C(N)=S)C(=O)C1N=Nc1cccc(Cl)c1C` (stereo not drawn), which Potency is on record?
**A.** inconclusive: 31.6 µM [activator, single point]

— PubChem BioAssay AID2451 (National Center for Advancing Translational Sciences (NCATS), 2010)
